Assay results as given in the supplement of paper PMC10126150.
Values marked as one replicate rest on one cluster of the flow cell; about a third of the high ones do not repeat.

Test system: ATP
Assay: switch fluorescence ratio, 500 uM ATP over buffer (Cy3 cluster intensity, sum of 5 cycles each) (fold (ratio)); higher = stronger signal-on switching upon ATP binding; sequences stand for … in TCGTCGGCAGCGTCAGATGTGTATAAGAGACAGTTTTTTTTTTTTTTTTTTTTTTTTT…TC
Details: aptamer strand: ATP DNA aptamer (quencher-CACCTGGGGGAGTATTGCGGAGGAAGG + anchor), 100 nM annealed; ATP concentration: 500 uM; one replicate
Method in brief: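 Between each of five buffer/ATP cycles, the flow-cell was stripped with NaOH and re-annealed. Each cycle imaged Cy3-labelled switching-strand clusters, annealed to 100 nM quencher-labelled ATP aptamer on a modified Illumina MiSeq flow-cell, first in selection buffer and then after 15 min with 500 uM ATP at 22 °C. The fluorescence ratio is summed target-cycle over summed buffer-cycle Cy3 intensity per cluster, averaged per switch-domain sequence, with clusters outside 100-1000 RFU excluded.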
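Also: ATP exposure 15 min at 22 °C before imaging.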

Work on TGTCATAGAC yielded a switch fluorescence ratio of 1.04.
Work on AATTGAACGA yielded a switch fluorescence ratio of 0.999.
In the case of AGCATAAAAA, the switch fluorescence ratio is reported as 0.995.
For TATCGATAGA, the switch fluorescence ratio was 1.01.
Work on AGTTACTACA yielded a switch fluorescence ratio of 1.04.
For TTGAGTCTC, the switch fluorescence ratio was 0.987.
With ATACCGCGTG the switch fluorescence ratio was 1.01.
TGCCATGGAC gave a switch fluorescence ratio of 1.06.
Sequence GGAATCTCTA has a switch fluorescence ratio of 0.99.
Work on TACTAACCTC yielded a switch fluorescence ratio of 1.11.
Work on AATGGAGG yielded a switch fluorescence ratio of 0.995.
With CGTCACACGT the switch fluorescence ratio was 0.999.
Work on TTGCAGATCC yielded a switch fluorescence ratio of 0.989.
With AGCTTACTGG the switch fluorescence ratio was 1.06.
For CTGAGGCAGA, the switch fluorescence ratio was 1.75.
CACATCGGTC gave a switch fluorescence ratio of 0.977.
Work on TATATGTTCT yielded a switch fluorescence ratio of 0.961.
Work on CTAAACTGCT yielded a switch fluorescence ratio of 1.
Work on CGGAGGGGGC yielded a switch fluorescence ratio of 1.04.
GCCGGGGCCG showed a switch fluorescence ratio of 0.929.
GCACGAACAA was tested, and the switch fluorescence ratio was 1.37.
CGGTTAGCGT was tested, and the switch fluorescence ratio was 0.972.
GTTTTTGAGA showed a switch fluorescence ratio of 1.
ACGGAAGTCG showed a switch fluorescence ratio of 0.974.
TGAAGCTTTG gave a switch fluorescence ratio of 0.986.
In the case of CTATCGTGCT, the switch fluorescence ratio is reported as 0.987.
TGGAGAATGG showed a switch fluorescence ratio of 0.959.
TCATCACTAT was tested, and the switch fluorescence ratio was 1.02.
GTGTTTCGGT was tested, and the switch fluorescence ratio was 0.977.
TGATGAGTA gave a switch fluorescence ratio of 1.03.
Work on CTGGATAGT yielded a switch fluorescence ratio of 1.
In the case of TCTGGCATTG, the switch fluorescence ratio is reported as 1.02.
Sequence TTAAATTACT has a switch fluorescence ratio of 1.04.
Sequence CCGTAGTCAG has a switch fluorescence ratio of 2.98.
Sequence CCGAGTGCC has a switch fluorescence ratio of 1.48.
GGACGGACTG gave a switch fluorescence ratio of 1.32.
GGGACAGTGC was tested, and the switch fluorescence ratio was 1.04.
Work on GTAAGCTTG yielded a switch fluorescence ratio of 1.01.
For CTCTTAATGT, the switch fluorescence ratio was 0.986.
Sequence ACGTCTGTCC has a switch fluorescence ratio of 1.
In the case of TATCTGGAGT, the switch fluorescence ratio is reported as 1.14.
TCTGTAAGCG gave a switch fluorescence ratio of 0.906.
In the case of GCTTACCGTT, the switch fluorescence ratio is reported as 0.97.
In the case of TGCAAAATTA, the switch fluorescence ratio is reported as 1.01.
CTTATTTGGA gave a switch fluorescence ratio of 0.996.
Sequence AAGGCAGCAT has a switch fluorescence ratio of 1.01.
Work on CTTTGTCTGC yielded a switch fluorescence ratio of 1.03.
Sequence TGCCAGAGA has a switch fluorescence ratio of 1.
With GACAGTATT the switch fluorescence ratio was 0.994.
Sequence GAATATTCAC has a switch fluorescence ratio of 0.996.
Sequence GGTAGCGTGA has a switch fluorescence ratio of 1.02.
Work on TCACGCATTT yielded a switch fluorescence ratio of 1.08.
GCGCTTTTAG was tested, and the switch fluorescence ratio was 1.04.
Work on CGCGGACTGG yielded a switch fluorescence ratio of 1.
ACGGTAACTT gave a switch fluorescence ratio of 1.24.
Sequence GGAGGGCTGA has a switch fluorescence ratio of 0.949.
In the case of TTTGCAAACG, the switch fluorescence ratio is reported as 0.995.
For CACCAATTTA, the switch fluorescence ratio was 1.04.
In the case of TATCGCTTAT, the switch fluorescence ratio is reported as 1.01.
With AGAACGAGTT the switch fluorescence ratio was 1.
Sequence GACGGTACAT has a switch fluorescence ratio of 1.31.
ATCTAGAGTG was tested, and the switch fluorescence ratio was 0.921.
GATAAAACGT showed a switch fluorescence ratio of 1.02.
In the case of ACCTAAATT, the switch fluorescence ratio is reported as 1.06.
With AGCCTGACAA the switch fluorescence ratio was 1.08.
TCTCGGCACC showed a switch fluorescence ratio of 3.18.
CCAGCACGTG gave a switch fluorescence ratio of 0.984.
With CTTCAGGCGA the switch fluorescence ratio was 1.23.
With GCCTGGTACG the switch fluorescence ratio was 1.04.
TCTAGTGAG was tested, and the switch fluorescence ratio was 0.993.
ATCTACAAAG was tested, and the switch fluorescence ratio was 1.06.
With ACTGCTGGGG the switch fluorescence ratio was 1.04.
Sequence CAGTATGGAG has a switch fluorescence ratio of 0.952.
AGGTGATCCC gave a switch fluorescence ratio of 1.03.
With CTTCTTATCA the switch fluorescence ratio was 0.962.
In the case of TGTATCTTTT, the switch fluorescence ratio is reported as 0.982.
For GAGTGATTTT, the switch fluorescence ratio was 0.982.
In the case of ACGTGTAGCT, the switch fluorescence ratio is reported as 1.04.
TGTTACCGAC showed a switch fluorescence ratio of 1.31.
TGGATGAATC showed a switch fluorescence ratio of 0.978.
TATTACTGCG was tested, and the switch fluorescence ratio was 0.997.
CGGGAAGCAT showed a switch fluorescence ratio of 1.05.
CACTCGTTTG gave a switch fluorescence ratio of 0.975.
For GGCATCTGGT, the switch fluorescence ratio was 0.948.
ATTCGAGGCA gave a switch fluorescence ratio of 1.03.
Sequence GCGGGCTAGT has a switch fluorescence ratio of 1.01.
Work on TATACAGCCG yielded a switch fluorescence ratio of 0.991.
In the case of CTGGATTGTA, the switch fluorescence ratio is reported as 1.02.
ACGTCGTTGG showed a switch fluorescence ratio of 1.02.
For TATAGTGATC, the switch fluorescence ratio was 1.09.
TCATGCGGTC gave a switch fluorescence ratio of 1.01.
ATGGTCGGGC gave a switch fluorescence ratio of 1.03.
Sequence GCCAATATTT has a switch fluorescence ratio of 0.99.
GGCCGTCTAG showed a switch fluorescence ratio of 0.999.
With TTAATATTA the switch fluorescence ratio was 1.02.
AAGCCTTCGT gave a switch fluorescence ratio of 1.46.
In the case of AGGTGTACGT, the switch fluorescence ratio is reported as 1.04.
Sequence TAGTACATGA has a switch fluorescence ratio of 1.05.
For CGCTAGGGCT, the switch fluorescence ratio was 1.01.
In the case of AGATTCGCCA, the switch fluorescence ratio is reported as 0.994.
For CAGTATGCGG, the switch fluorescence ratio was 1.02.
Sequence GAATATATTA has a switch fluorescence ratio of 1.04.
CTGATTTTTG showed a switch fluorescence ratio of 1.06.
Sequence CTAAACTTTT has a switch fluorescence ratio of 1.04.
TGGACCTGCT gave a switch fluorescence ratio of 1.03.
Sequence CATGTAAGCC has a switch fluorescence ratio of 1.
Work on TAGTTCCTGC yielded a switch fluorescence ratio of 1.05.
Work on GTAACATGTA yielded a switch fluorescence ratio of 1.03.
With TATGTCTAAC the switch fluorescence ratio was 1.05.
Work on GAGCCTTCA yielded a switch fluorescence ratio of 1.32.
For ATTCAAGCTA, the switch fluorescence ratio was 1.03.
With GTAGGTGAGG the switch fluorescence ratio was 1.01.
For TTCCTGATTC, the switch fluorescence ratio was 1.42.
For CATATATTTA, the switch fluorescence ratio was 1.06.
With CCCCCCATGC the switch fluorescence ratio was 2.19.
In the case of TGGGGCGGTC, the switch fluorescence ratio is reported as 1.06.
In the case of GGGATATT, the switch fluorescence ratio is reported as 1.01.
For TTAAGTCTGT, the switch fluorescence ratio was 1.01.
Work on CAAAACCATT yielded a switch fluorescence ratio of 1.
Work on CAAGGTACTG yielded a switch fluorescence ratio of 1.04.
With ACTTATTCGA the switch fluorescence ratio was 1.04.
AGAGACACCA showed a switch fluorescence ratio of 1.01.
ACTTCCCTAA was tested, and the switch fluorescence ratio was 1.05.
GCAGCTAAC was tested, and the switch fluorescence ratio was 2.73.
With GGCCGCGCCT the switch fluorescence ratio was 1.11.
With GATCGAAAA the switch fluorescence ratio was 1.07.
With GAACAGAGAG the switch fluorescence ratio was 1.06.
ACGGACGTCA was tested, and the switch fluorescence ratio was 1.01.
For GAAGTGTAGT, the switch fluorescence ratio was 1.
For TTATGATCTC, the switch fluorescence ratio was 1.04.
In the case of TTTTCGTTGC, the switch fluorescence ratio is reported as 1.05.
With CTGGCGGGTT the switch fluorescence ratio was 1.04.
Work on AGTACGCCGT yielded a switch fluorescence ratio of 0.982.
AACACGGATC was tested, and the switch fluorescence ratio was 1.01.
TAATCCTGGA was tested, and the switch fluorescence ratio was 1.06.
For ATAATCTC, the switch fluorescence ratio was 1.01.
CAGGCGCGTT was tested, and the switch fluorescence ratio was 1.
GCGGAGTTTG was tested, and the switch fluorescence ratio was 0.999.
CTATTGTTA gave a switch fluorescence ratio of 0.972.
TTGTCAGGGC showed a switch fluorescence ratio of 0.974.
Sequence AAAGGTCTAT has a switch fluorescence ratio of 0.995.
CGCAAGTGTA gave a switch fluorescence ratio of 1.32.
With TTGACGCCCT the switch fluorescence ratio was 1.12.
With CGAAGGGTA the switch fluorescence ratio was 1.02.
Work on GGTGTATCGA yielded a switch fluorescence ratio of 1.01.
CAGGGTCCCC gave a switch fluorescence ratio of 0.962.
With CGTTATCTGA the switch fluorescence ratio was 1.04.
With GGGACCTAGA the switch fluorescence ratio was 0.996.
Sequence GAACGGCTC has a switch fluorescence ratio of 0.996.
In the case of ACACGGGCGG, the switch fluorescence ratio is reported as 0.992.
With GAAGTCTGCG the switch fluorescence ratio was 0.96.
In the case of AGGGCCTCAC, the switch fluorescence ratio is reported as 1.02.
